# Source: PubChem BioAssay AID1476 (National Center for Advancing Translational Sciences (NCATS), 2009)
# The campaign covered roughly 200,000 compounds. About 4,500 (2.2%) were called active. Inconclusive results, whose numbers are uncertain, are shown with a selection of clear calls. The call rests on the fitted dose curve; in most records, active means well fitted inhibition curve with a large enough effect; inconclusive means small, poorly fitted or top-dose-only effect, or effect the other way; inactive means flat fitted curve, though single readings scatter. A potency beside an inconclusive call is a rough fit, not a confirmed value.
# Molecular target: Cruzipain (Trypanosoma cruzi) (UniProt P25779)
# Sequence of UniProt P25779 (P25779 whole entry, looked up): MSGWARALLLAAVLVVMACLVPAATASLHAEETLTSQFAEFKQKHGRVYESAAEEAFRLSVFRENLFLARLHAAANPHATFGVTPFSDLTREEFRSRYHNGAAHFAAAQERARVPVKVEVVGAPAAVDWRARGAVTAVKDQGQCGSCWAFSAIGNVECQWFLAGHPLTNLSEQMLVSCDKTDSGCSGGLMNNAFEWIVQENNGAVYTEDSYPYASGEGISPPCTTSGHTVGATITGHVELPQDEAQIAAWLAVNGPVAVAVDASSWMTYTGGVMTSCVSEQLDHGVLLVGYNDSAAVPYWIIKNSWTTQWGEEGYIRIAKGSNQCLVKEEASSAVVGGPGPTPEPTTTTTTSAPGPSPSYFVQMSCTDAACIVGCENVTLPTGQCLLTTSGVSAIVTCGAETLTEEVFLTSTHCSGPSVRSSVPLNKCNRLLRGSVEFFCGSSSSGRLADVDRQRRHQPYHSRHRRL
# Assay: qHTS Assay for Promiscuous and Specific Inhibitors of Cruzain (without detergent); further: nearly all actives have a fitted effect of over 40% in size;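 on max response, negative = inhibition: plate controls were enzyme without inhibitor for no effect and buffer without enzyme for full effect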
# Settings: purified cruzain, Z-FR-AMC fluorescence, no detergent
# How it was run: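 Purified cruzain at 1.5 nM, pre-incubated 15 min with compound at room temperature in 100 mM sodium acetate pH 5.5, 5 mM DTT, 0.00005% Triton X-100. Reaction started with 2 uM Z-FR-AMC; AMC fluorescence increase over 60 s gives rate.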
# Potency means the concentration at half of the fitted maximal effect; tags describe the fitted curve by direction and shape.
SMILES,Potency,"max response, negative = inhibition"
COc1cc2c(cc1NC(=O)CSc1nnc(COc3ccc(Cl)cc3)n1C)oc1ccccc12,"inconclusive: 39.8 µM [inhibitor, single point]",
CC(C)Cn1c(=O)c2ccccc2n2c(CCC(=O)Nc3cccc(Cl)c3)nnc12,,inactive: -1.88%
CCOC(=O)c1cnc2cc(-c3ccc(Cl)cc3)nn2c1-c1ccccc1,,inactive: 7.11%
O=C1C2C3C=CC(C3)C2C(=O)N1/N=C/c1ccc(-c2ccccc2[N+](=O)[O-])o1 (configuration not stated),"inconclusive: 25.1 µM [inhibitor, single point]",
COc1ccc(-c2cnnn2-c2ccc(NC(=O)c3ccc(S(=O)(=O)N(C)C)cc3)cc2)cc1,"inconclusive: 39.8 µM [inhibitor, single point]",
COc1ccc(-c2cnnn2-c2ccc(NC(=O)c3c(F)cccc3F)cc2)cc1,"inconclusive: 20 µM [inhibitor, single point]",
CCC(Sc1nc2n[nH]c(C)c2c(=N)n1-c1cccc(Cl)c1)C(=O)NCCOC (configuration not stated),"inconclusive: 39.8 µM [activator, single point]",
N#CC1=C(N)N(c2ccc(Oc3ccccc3)cc2)C(=O)C1,"inconclusive: 25.1 µM [inhibitor, single point]",
COc1ccc(C)cc1NC(=O)c1cc(S(=O)(=O)NC2CCCCCC2)ccc1F,,inactive: -11.3%
Cc1cccc(CNS(=O)(=O)c2ccc3[nH]c(=O)ccc3c2)c1,,inactive: -9.48%
Cc1ccc(Cn2ccc(NC(=O)c3cc(-c4ccc(F)cc4)on3)n2)cc1,active: 20 µM,
Cc1ccc(/C=C/C(=O)Nc2nc3ccccc3[nH]2)cc1,active: 25.1 µM,
CC1COC2=C1C(=O)C(=O)c1c2ccc2c1CCCC2(C)C (configuration not stated),"inconclusive: 39.8 µM [activator, single point]",inactive: 0.399%
CNCCCOc1ccc(C(C)(C)c2ccccc2)cc1,"inconclusive: 0.794 µM [inhibitor, full curve]",
COc1cccc(C2CC(c3cccs3)=NN2C(=O)CSc2nc3ccccc3o2)c1OC (configuration not stated),"inconclusive: 31.6 µM [inhibitor, single point]",
COc1ccccc1CNC(=O)c1ccc(N2CCCC2)c(NC(=O)NCc2ccccc2)c1,,inactive: 18%
CCOc1ccc(C(=O)Nc2cccc(NC(=O)c3ccco3)c2)cc1Cl,,inactive: -3.46%
COc1ccc(NC(=S)c2ccc(N(C)C)cc2)cc1,,inactive: 7.79%
CCOC(=O)c1cc2oc(C(c3nnnn3C3CCCCC3)N3CCOCC3)cc2[nH]1 (configuration not stated),"inconclusive: 39.8 µM [activator, single point]",
COc1ccc(N2CCN(C(=O)c3ccc(OCC4CCCO4)cc3)CC2)cc1 (configuration not stated),"inconclusive: 25.1 µM [activator, single point]",
COc1cc(OC)c(Nc2cc(C)nc3ncnn23)cc1Cl,,inactive: -5.13%

SMILES,Potency,"max response, negative = inhibition"
O=C(Nc1cccc(-c2csc(-c3ccccc3)n2)c1)c1cccs1,"inconclusive: 39.8 µM [inhibitor, single point]",
CCc1nn2c(=O)cc(COC(=O)CNC(=O)c3ccccc3)nc2s1,,inactive: -9.25%
COC(=O)C1=CC(C(=O)c2cccs2)=NN(c2ccc(OC)cc2)C1C(=O)OC (configuration not stated),"inconclusive: 31.6 µM [activator, single point]",
N#Cc1cccc(NC(=O)COC(=O)c2ccccc2C(=O)c2ccc(Cl)c([N+](=O)[O-])c2)c1,"inconclusive: 39.8 µM [inhibitor, single point]",
COC(=O)c1c(-c2ccc(Cl)cc2)noc1N1CCN(c2ccc(OC)cc2)CC1,,inactive: -6.63%
CC(Nc1cc(N2CCNCC2)ccc1[N+](=O)[O-])c1ccccc1 (configuration not stated),"inconclusive: 31.6 µM [inhibitor, single point]",
CC(C)CCOc1ncnc2c1sc1nc3c(cc12)CSC(C)(C)C3,"inconclusive: 25.1 µM [activator, partial curve]",
COCCCn1c(SCc2cccc(C(F)(F)F)c2)nc2cc(OC)c(OC)cc2c1=N,"inconclusive: 39.8 µM [activator, single point]",
CCN(CC)C(=O)c1ccc(NC(=O)Cn2nc(C)c3ccccc3c2=O)cc1,,inactive: -0.266%
O=C(NCc1ccccc1Cl)C1CCCN(c2ncnc3onc(-c4ccc(F)cc4)c23)C1 (configuration not stated),,inactive: -9.56%
COC(=O)c1ccc(Oc2nc(N3CCCCC3)nc(N3CCOCC3)n2)cc1,"inconclusive: 39.8 µM [activator, single point]",
Cn1c(=O)c2c(ncn2CC(COCc2ccc(Cl)cc2)OCc2ccc(Cl)cc2)n(C)c1=O (configuration not stated),"inconclusive: 31.6 µM [activator, single point]",
CCOC(=O)c1ccc(NC(=O)C(Cc2ccccc2)NS(=O)(=O)c2ccc(Br)s2)cc1 (configuration not stated),"inconclusive: 15.8 µM [inhibitor, partial curve, poor fit]",
COc1ccc(CCC(=O)c2c(O)cc(O[C@@H]3O[C@H](CO)[C@@H](O)[C@H](O)[C@H]3O[C@@H]3O[C@@H](C)[C@H](O)[C@@H](O)[C@H]3O)cc2O)cc1O,"inconclusive: 39.8 µM [activator, single point]",
Cc1cc(C)cc(Nc2sc(C(=O)c3ccccc3)c(N)c2S(=O)(=O)c2ccccc2)c1,active: 10 µM,
CCOCCCNC(=O)CN1C(=O)/C(=C\c2ccc(C)cc2)Sc2ccccc21,"inconclusive: 39.8 µM [activator, single point]",
Nc1nc(NCC2CCC(CNS(=O)(=O)c3cccc4ccccc34)CC2)nc2ccccc12 (configuration not stated),"inconclusive: 39.8 µM [inhibitor, single point]",
CC(=O)Nc1ccc(C2Nc3c(C)cc(C)cc3-c3cc(C)nn32)cc1 (configuration not stated),,inactive: -9.68%
O=C(COc1ccccc1-c1nc(-c2ccccc2)no1)Nc1ccccc1[N+](=O)[O-],,inactive: 3.2%
COc1ccccc1-n1c(=O)c2c3c(sc2n2c(SC(C)C)nnc12)CCC3,"inconclusive: 39.8 µM [activator, single point]",
